About 14,000 (4.5%) of roughly 310,000 compounds showed an effect of 50% or more. Effects have a minus sign here. This is one part of the list.
target: human ether-à-go-go-related gene (hERG) potassium channel (human, UniProt Q12809); assay: primary screen, population patch clamp on CHO cells stably expressing hERG
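Further: peak tail current of the secondary pulse compared with the same well before compound.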

human ether-à-go-go-related gene (hERG) potassium channel, sequence (Q12809 whole entry, looked up): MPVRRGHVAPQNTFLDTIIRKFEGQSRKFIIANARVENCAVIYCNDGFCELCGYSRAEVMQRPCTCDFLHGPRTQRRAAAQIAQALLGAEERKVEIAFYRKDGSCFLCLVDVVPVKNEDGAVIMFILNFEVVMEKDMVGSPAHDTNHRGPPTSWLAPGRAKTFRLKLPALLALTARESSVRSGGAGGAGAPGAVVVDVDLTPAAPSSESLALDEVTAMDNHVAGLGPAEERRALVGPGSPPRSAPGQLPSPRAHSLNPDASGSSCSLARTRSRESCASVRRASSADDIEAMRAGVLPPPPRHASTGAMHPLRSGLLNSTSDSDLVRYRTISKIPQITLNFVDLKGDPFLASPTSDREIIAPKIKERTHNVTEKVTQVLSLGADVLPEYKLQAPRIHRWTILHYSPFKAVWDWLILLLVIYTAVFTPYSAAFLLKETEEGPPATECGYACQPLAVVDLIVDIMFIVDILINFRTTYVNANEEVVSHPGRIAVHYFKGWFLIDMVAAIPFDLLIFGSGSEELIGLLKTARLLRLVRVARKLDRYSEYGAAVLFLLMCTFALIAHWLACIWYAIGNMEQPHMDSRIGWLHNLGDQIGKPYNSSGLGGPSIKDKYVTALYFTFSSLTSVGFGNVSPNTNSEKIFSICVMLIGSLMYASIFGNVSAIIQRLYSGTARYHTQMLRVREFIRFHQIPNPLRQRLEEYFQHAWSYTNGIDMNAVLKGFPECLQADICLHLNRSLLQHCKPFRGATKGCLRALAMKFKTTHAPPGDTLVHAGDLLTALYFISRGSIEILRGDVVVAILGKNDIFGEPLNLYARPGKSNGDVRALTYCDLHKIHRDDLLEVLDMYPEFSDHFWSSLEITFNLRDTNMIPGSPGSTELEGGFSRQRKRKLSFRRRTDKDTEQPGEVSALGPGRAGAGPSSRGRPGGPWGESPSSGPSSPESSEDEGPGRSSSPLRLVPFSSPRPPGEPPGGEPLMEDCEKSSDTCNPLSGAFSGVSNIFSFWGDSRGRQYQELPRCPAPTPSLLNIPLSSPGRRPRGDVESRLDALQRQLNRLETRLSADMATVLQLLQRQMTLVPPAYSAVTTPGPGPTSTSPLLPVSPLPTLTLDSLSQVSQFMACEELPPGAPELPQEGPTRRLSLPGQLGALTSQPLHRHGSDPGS

| Compound | hERG current change (%, negative = inhibition) at 10uM [%] |
| --- | --- |
| COc1ccc2nc(C)cc(N3CCN(c4ccccc4)CC3)c2c1 | -66.7 |
| Cc1nc2cc(NC(=O)Nc3cccc4ccccc34)ccc2n1C | 2.53 |
| CCCc1cc(=O)[nH]c(SCC(=O)Nc2ccc(OCc3ccccc3)cc2)n1 | 1.5 |
| CNC(=O)c1ccc(CN(C)CC(=O)Nc2ccccc2C(=O)NC2CC2)cc1 | -12.2 |
| N#Cc1ccc(C(=O)Nc2cccc3ncccc23)c(F)c1 | -40.2 |
| O=C(CSCc1ccc(F)cc1)NCc1cccs1 | -5.98 |
| CCOC(=O)Cn1c2ccccc2c2nc3ccccc3nc21 | 6.84 |
| C=C(C)CN(CC)c1ccc(N2C(=O)CCCC2=O)cc1[N+](=O)[O-] | 16.7 |
| Cc1cc(-c2ccc(NC(=O)[C@@H]3CCCC[C@@H]3C(=O)O)c(C)c2)ccc1NC(=O)[C@@H]1CCCC[C@@H]1C(=O)O | 16.2 |
| O=C(Nc1ccc(N2CCOCC2)cc1)c1cc(-c2ccncc2)nc2ccccc12 | -44.2 |
| CCC(=O)N1CCc2cc(Br)cc(S(=O)(=O)NCc3ccccc3OC)c21 | 16.9 |
| O=C(O)CCCCCCCCCCCc1ccccc1 | 12.7 |
| Cn1c(N)c(S(=O)(=O)NCc2ccc(F)cc2)c(=O)n(C)c1=O | 9.15 |
| CSc1nsc(SCC(=O)Nc2nncs2)n1 | 21.2 |
| Cc1occc1C(=O)N1N=C(C2CC2)CC1(O)C(F)(F)F (centres unmarked) | 10 |
| COCCn1c(SCC(=O)N2CCN(c3ccccc3)CC2)nc2c(c1=O)SC(C)C2 (centres unmarked) | -58.8 |
| CCCn1c(N2CCN(C(=O)Nc3ccccc3)CC2)nc2ccccc21 | -35.9 |
| NC(=O)COC(=O)c1ccccc1SCC(=O)NC1CCCCCCC1 | 12 |
| O=C(NCc1ccco1)c1cccc(S(=O)(=O)N2CCCCC2)c1 | -24.7 |

| Compound | hERG current change (%, negative = inhibition) at 10uM [%] |
| --- | --- |
| COc1ccccc1CCC(=O)Nc1ncc(C)s1 | 16.3 |
| CCn1c(=O)c(C)nn2c3ccccc3nc12 | -1.87 |
| O=C(O)CSCCn1cccn1 | -29.9 |
| CCn1c(=S)sc2c(=O)[nH]c(SCC(=O)Nc3cc(OC)ccc3OC)nc21 | 13.9 |
| O=C(O)COc1ccc(/C=N/NC(=O)Cc2ccc(Cl)cc2)cc1 | 1.77 |
| O=[N+]([O-])c1ccc(NC(=S)NCc2ccc(F)cc2)cc1 | -12.3 |
| O=C1Nc2ccccc2C12NCCc1c2[nH]c2ccccc12 (centres unmarked) | 4.01 |
| COc1ccc(S(=O)(=O)N2CCN(C(c3ccccc3)c3ccccc3)CC2)cc1NC(C)=O | 21.2 |
| CCOC(=O)C1CCN(c2ncnc3c2oc2ccccc23)CC1 | -34.9 |
| COC(=O)c1sc2ccccc2c1-n1cccc1C(=O)C(=O)Nc1ccc(C)cc1 | -2.91 |
| O=C(O)CSc1c2c(nc3cc(C(=O)Nc4cccc(C(F)(F)F)c4)ccc13)CCC2 | 14.3 |
| COc1ccc(C(=O)Nc2ccc(NC(=O)c3ccccc3OC)nc2)cc1 | 5.56 |
| COC(=O)c1ccc(OCC(O)CN(CCO)CC(O)Cn2ccc3ccccc32)cc1 (centres unmarked) | 6.93 |
| Cc1ccc(NC(=O)C2CCN(C(=O)c3ccco3)CC2)cc1C | 1.66 |
| Cc1ccc(C2=Nc3ccccc3N=C(c3ccc([N+](=O)[O-])cc3)C2)c(O)c1 | -3.53 |
| CSc1nc2ccc(NC(=O)c3c(F)cccc3F)cc2s1 | 8.89 |
| CCCCC1=CC2=CC(=O)C(C)(OC(=O)CC)C(=O)C2=CN1CCc1ccc(Br)cc1 (centres unmarked) | -58.9 |
| COc1ccc(C(=O)NCc2nnc(SCC(=O)N3CCc4ccccc43)n2Cc2ccccc2)cc1 | 5.66 |
| Cc1ccc(S(=O)(=O)/C(C#N)=C/c2c(N3CC(C)OC(C)C3)nc3c(C)cccn3c2=O)cc1 (centres unmarked) | -28.1 |

| Compound | hERG current change (%, negative = inhibition) at 10uM [%] |
| --- | --- |
| CCOC(=O)c1ccccc1NC(=O)Cn1cnc2c(cnn2-c2ccc(OC)cc2)c1=O | -3.53 |
| CCC(C)[C@H](NC(=O)C1CC(=O)N(c2ccc3c(c2)OCCO3)C1)C(=O)N1CCCCC1 (some centres unmarked) | 13.4 |
| Cc1ccc(/C=C2\SC(=S)N(CCC(=O)NCCCN3CCOCC3)C2=O)cc1 | -8.59 |
| CCOc1ccccc1/C=N/NC(=O)c1c(C)nc2ccc(Br)cn12 | -3.19 |
| O=C(NCc1ccccc1Cl)C1CCCN(S(=O)(=O)c2cccc3nsnc23)C1 (centres unmarked) | -18.3 |
| O=C(CCS(=O)(=O)c1ccccc1)Nc1nc2c(s1)CCCC2 | 0.42 |
| COc1cccc(NC(=O)CN(C)C(=O)Cc2ccc(Cl)cc2Cl)c1 | 9.75 |
| Cc1ccc(F)cc1NS(=O)(=O)c1ccc(Cl)s1 | -1.11 |
| O=C(CCc1nnc(Cc2cccc(C(F)(F)F)c2)o1)NCCc1ccccc1F | -13.3 |
| COc1ccc(OC)c(CNC(=O)C2CCCN(C(=O)N(C)C)C2)c1 (centres unmarked) | 8.08 |
| COc1ccc(C(=O)COC(=O)CCN2C(=O)C3C4CCC(C4)C3C2=O)cc1 (centres unmarked) | -11.5 |
| CC(=O)NC1=NN(C(C)=O)C(C)(c2ccccc2)S1 (centres unmarked) | 11.9 |
| CNC(=O)c1cc2c(cn1)[nH]c1ccccc12 | 31 |
| Cc1cccc(N2CC(=O)N(c3cccc(C)c3)CC2=O)c1 | 0.689 |
| Cc1cc(N2CCN(c3ccc(F)cc3)CC2)nc(-c2ccccc2)n1 | -13.7 |
| O=C1CCC(c2ccc3c(c2)CCC3)=NN1 | 17.3 |
| CCc1ccc(NC(=O)CN2C(=O)CC(C)S(=O)(=O)c3ccccc32)cc1 (centres unmarked) | -3.99 |
| NNC(=O)c1ncoc1-c1ccc(Cl)cc1 | 12.4 |
